Source: PubChem BioAssay AID540317 (National Center for Advancing Translational Sciences (NCATS), 2011)
The campaign covered roughly 390,000 compounds. About 2,200 (0.56%) were called active. Inconclusive means that the source gave no clear call. Such entries were picked first, then a sample of the others. Calls come from the whole dose curve; as a rule, active = well fitted inhibition curve with a large enough effect; inconclusive = small, poorly fitted or top-dose-only effect; inactive = no such curve, though single readings can be large or run the other way. Where the call is inconclusive, the potency comes from a doubtful curve fit.

Molecular target: Chromobox protein homolog 1 (Homo sapiens) (UniProt P83916)
Experiment: HTS for Inhibitors of HP1-beta Chromodomain Interactions with Methylated Histone Tails; note: nearly all actives have a fitted effect of over 70% in size
Details: AlphaScreen HP1-beta / biotin-H3K9me3 peptide binding; series mostly up to 114 µM; activity change, negative = inhibition: at the top concentration
How it was run: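 HP1-beta protein (50 nM final) preincubated 30 min at room temperature with biotinylated H3(1-18)K9me3 peptide (50 nM) in PBS pH 7.4, 0.01% Tween-20, then compound added for 30 min. AlphaScreen streptavidin donor/nickel chelate acceptor beads (10 ug/mL final), 30 min dark, luminescence read.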
Potency is the fitted concentration of half-maximal effect; tags give direction and shape of the fitted curve.

Sequence of UniProt P83916 (P83916 whole entry, looked up): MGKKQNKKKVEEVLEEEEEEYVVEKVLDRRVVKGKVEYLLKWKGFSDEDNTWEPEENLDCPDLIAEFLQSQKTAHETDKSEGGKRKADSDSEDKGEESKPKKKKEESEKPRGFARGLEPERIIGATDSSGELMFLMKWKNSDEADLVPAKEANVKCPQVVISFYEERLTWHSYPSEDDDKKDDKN

| SMILES | Potency | activity change, negative = inhibition |
| --- | --- | --- |
| Cc1nc2c(C(=O)NCc3ccccc3)c[nH]n2c(=O)c1Cc1ccccc1Cl | inconclusive: 89.1 µM [inhibitor, single point] | – |
| COc1cccc(C(=O)Nc2ccc(N3CCCC3)cc2)c1 | inconclusive: 28.2 µM [inhibitor, single point] | – |
| CCCCn1c(=O)[nH]c(=O)c2c1nc(CN(C)Cc1cccc(OC)c1OC)n2CCC | inconclusive: 15.8 µM [inhibitor, full curve, poor fit] | – |
| Cc1cc2ccccn2c1C(=O)c1cccc([N+](=O)[O-])c1 | inconclusive: 50.1 µM [inhibitor, partial curve, poor fit] | – |
| c1cc(CN2CCN(C3CCCCCC3)CC2)ccn1 | inconclusive: 25.1 µM [inhibitor, single point] | – |
| c1ccc(COc2ccc(OCCCN3CCCCC3)cc2)cc1 | inconclusive: 89.1 µM [inhibitor, single point] | – |
| Cn1c(-c2ccccc2)cnc1NCc1ccc(F)cc1 | inconclusive: 31.6 µM [inhibitor, partial curve] | – |
| COc1cc(OC)c(OC)cc1/C=C1\CCC/C(=C\c2cc(OC)c(OC)cc2OC)C1=O | active: 31.6 µM | – |
| COc1ccc(OC)c(NC(=O)C2CCCN(S(=O)(=O)c3cccc4nsnc34)C2)c1 (stereo not given) | inconclusive: 4.47 µM [inhibitor, full curve, poor fit] | – |
| CC[n+]1c(/C=C/c2ccc(N(C)C)cc2)ccc2ccccc21 | inconclusive: 8.91 µM [inhibitor, full curve, poor fit] | – |
| CCOc1ccc2[nH]c(C)cc(=O)c2c1 | – | inactive: 60% |
| Cc1ccc2c(c1)/C(=C/c1ccccc1C)C(=O)N2 | inconclusive: 39.8 µM [inhibitor, partial curve] | – |
| COc1cc(CN2CCN(c3cccc(C)c3C)CC2)cc(Br)c1O | inconclusive: 17.8 µM [inhibitor, full curve, poor fit] | – |
| CCOC(=O)Nc1ccc(NCc2ccc(F)cc2)nc1N | inconclusive: 56.2 µM [inhibitor, partial curve, poor fit] | – |
| COc1ccc(Br)cc1CN1C(=O)c2ccccc2C1C(=O)NC1CCCCCC1 (stereo not given) | – | inactive: 21.9% |
| COc1cc(OC)c(OC)cc1CN1CCN(S(=O)(=O)c2ccc(NC(C)=O)cc2)CC1 | inconclusive: 39.8 µM [inhibitor, partial curve] | – |
| CC(/C=N/n1c(-c2ccco2)n[nH]c1=S)=C\c1ccccc1 | inconclusive: 44.7 µM [inhibitor, partial curve] | – |
| COc1cc(C2c3sc(=O)[nH]c3SC3C4CCC(C4)C23)ccc1O (stereo not given) | inconclusive: 39.8 µM [inhibitor, partial curve, poor fit] | – |

| SMILES | Potency | activity change, negative = inhibition |
| --- | --- | --- |
| O=C(Nc1ccc(Cl)cc1)C1CCCN(C2=NS(=O)(=O)c3ccccc32)C1 (stereo not given) | – | inactive: 29.9% |
| Nc1c(C(=O)N/N=C/c2ccccc2Cl)oc2nc(-c3ccccc3)cc(-c3ccco3)c12 | – | inactive: 29.9% |
| CCCNC(=S)Nc1ccc2nc(-c3ccccn3)c(-c3ccccn3)nc2c1 | – | inactive: 41.6% |
| CC1=Nc2ccccc2/C1=C/c1sc(=S)n(-c2cccc(C(=O)O)c2)c1O | inconclusive: 31.6 µM [inhibitor, partial curve, poor fit] | – |
| CCOC(=O)C(=O)Cc1cccnn1 | inconclusive: 56.2 µM [inhibitor, partial curve, poor fit] | – |
| CCN(CC)c1ccc(NC(=O)CN2CCN(CC(=O)Nc3ccc(F)cc3)CC2)cc1 | inconclusive: 56.2 µM [inhibitor, partial curve] | – |
| COC(=O)c1c(NC(=O)CCCOc2cccc(C)c2)sc2c1C(C(=O)OC)CC2 (stereo not given) | inconclusive: 8.91 µM [inhibitor, full curve] | – |
| Cc1ccc(S(=O)(=O)NN2C(=O)/C(=C/c3ccc(F)cc3)SC2=S)cc1 | – | inactive: 11.6% |
| Cc1ccc(CN(CC(O)COc2cccc3[nH]cc(C)c23)C(C)(C)C)cc1 (stereo not given) | inconclusive: 44.7 µM [inhibitor, partial curve, poor fit] | – |
| CCN(CC)c1ccc(C(=C2C=CC(=[N+](CC)CC)C=C2)c2ccc(S(=O)(=O)O)cc2S(=O)(=O)[O-])cc1 | active: 22.4 µM | – |
| COc1ccccc1Nc1c2ccccc2nc2ccccc12 | inconclusive: 70.8 µM [inhibitor, partial curve] | – |
| CCCCN(CCCNC(=O)c1cc(Nc2ccc(OC)c(OC)c2)nc2ccccc12)Cc1ccccc1 | inconclusive: 17.8 µM [inhibitor, full curve] | – |
| Oc1ccc(N2CCN(C(c3cccnc3)c3nnnn3Cc3ccccc3)CC2)cc1 (stereo not given) | inconclusive: 100 µM [inhibitor, single point] | – |
| O=C1OC(NC(=O)c2ccccc2)C(n2cc(CO)nn2)=C1Cl (stereo not given) | inconclusive: 22.4 µM [inhibitor, full curve] | – |
| C/C(=C1/SC(N2CC(C)OC(C)C2)=NC1=O)c1ccccc1 (stereo not given) | – | inactive: 21.4% |
| CC(=O)NCCCNC(=S)NCCCN(Cc1ccc(Cl)cc1)c1ccc(Br)cn1 | inconclusive: 28.2 µM [inhibitor, partial curve, poor fit] | – |
| CCCCNC(=O)C(CC)n1c(SCc2cccc(F)c2)nc2ccncc21 (stereo not given) | – | inactive: 18.3% [at 57 µM] |
